# Data as given in the supplement of paper PMC8728848.
# The other results are listed elsewhere or left out.
# B1: Pbx1 (Cryptococcus neoformans) (protein)
# chain: ATTKCLVSGDQDSINNALALGGEGTTVTLCPGSVHRLNSSIIFTAPSQTLTTLGNPKDRNRAMLVVDGEDLACAIRADCKQCSHAMIRSLVIDGNRPQLLRIPKGDALIEVGNAESQTVRDCKLYEPRGWSALHFREGDERQCRFGHIVDNEIGPCGEEWDDEYDSMDETKPLWGNPRADGISLACKDSIVERNVVYDATDGAIVLFGSAGSTVKNNHVYARTRVILGGINLVDYEPWDGDYTNVKVHHNHLYALGRYFKVGIVIGPASWSDDTESVVHSASVTDNEFSGGYWGYGIVVASAKNFEVLRNKVIWDGEQGVARFSGVPGSRCPKAPENGKPTAFLINRGSAKGIFQDDFVNGEVQHIICLNPDQDPPYKPWRFRDSPEAIAAKQAENPTANSAFDSRIAEALVSYQMSLLNSMDAMTQKVEHLTNPIVDDALPFVHEHERAEADKKARQEASRKEKESGNKDVDMLNVKVEELEKSGRRLKKALDGLKSDFEGLSGRLKKSADENKPIIETIFVTSQNLLLGATSQQN
# Experiments:
# Test in all cases: glycan array binding signal (z-score within array); higher = stronger binding
# Settings in all cases: glycan notation: IUPAC condensed, linker removed
# Gal(b1-4)Glc6S = target: Gal(b1-4)Glc6S
# Outline: (§1)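 Negative Z-scores can be read as non-binding. The Z-score is calculated within each array and then averaged across arrays of one protein sequence at different concentrations or buffers and across linkers. Arrays, 3228 in all, were curated from the Consortium for Functional Glycomics database and kept only where the protein sequence was available.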
# Gal(b1-4)GlcNAc = target: Gal(b1-4)GlcNAc
# Outline: as §1
# [1] = target: Gal(b1-4)GlcNAc(a1-6)Gal(b1-4)GlcNAc
# Outline: as §1
# Gal(b1-4)GlcNAc(b1-2)Man = target: Gal(b1-4)GlcNAc(b1-2)Man
# Outline: as §1
# [2] = target: Gal(b1-4)GlcNAc(b1-2)Man(a1-3)Man(b1-4)GlcNAc(b1-4)GlcNAc
# Outline: as §1
# [3] = target: Gal(b1-4)GlcNAc(b1-2)Man(a1-3)[Gal(b1-4)GlcNAc(b1-2)Man(a1-6)]Man(b1-4)GlcNAc(b1-4)GlcNAc
# Outline: as §1
# [4] = target: Gal(b1-4)GlcNAc(b1-2)Man(a1-3)[Gal(b1-4)GlcNAc(b1-2)Man(a1-6)]Man(b1-4)GlcNAc(b1-4)[Fuc(a1-6)]GlcNAc
# Outline: as §1
# [5] = target: Gal(b1-4)GlcNAc(b1-2)Man(a1-3)[Gal(b1-4)GlcNAc(b1-2)Man(a1-6)][Gal(b1-4)GlcNAc(b1-4)]Man(b1-4)GlcNAc(b1-4)[Fuc(a1-6)]GlcNAc
# Outline: as §1
# [6] = target: Gal(b1-4)GlcNAc(b1-2)Man(a1-3)[Gal(b1-4)GlcNAc(b1-2)Man(a1-6)][GlcNAc(b1-4)]Man(b1-4)GlcNAc(b1-4)[Fuc(a1-6)]GlcNAc
# Outline: as §1
# [7] = target: Gal(b1-4)GlcNAc(b1-2)Man(a1-3)[GlcNAc(b1-2)Man(a1-6)]Man(b1-4)GlcNAc(b1-4)GlcNAc
# Outline: as §1
# [8] = target: Gal(b1-4)GlcNAc(b1-2)Man(a1-3)[GlcNAc(b1-4)][Gal(b1-4)GlcNAc(b1-2)Man(a1-6)]Man(b1-4)GlcNAc(b1-4)GlcNAc
# Outline: as §1
# [9] = target: Gal(b1-4)GlcNAc(b1-2)Man(a1-3)[Man(a1-6)]Man(b1-4)GlcNAc(b1-4)GlcNAc
# Outline: as §1
# [10] = target: Gal(b1-4)GlcNAc(b1-2)Man(a1-6)Man(b1-4)GlcNAc(b1-4)GlcNAc
# Outline: as §1
# [11] = target: Gal(b1-4)GlcNAc(b1-2)Man(a1-6)[GlcNAc(b1-2)Man(a1-3)]Man(b1-4)GlcNAc(b1-4)GlcNAc
# Outline: as §1
# [12] = target: Gal(b1-4)GlcNAc(b1-2)Man(a1-6)[Man(a1-3)]Man(b1-4)GlcNAc(b1-4)GlcNAc
# Outline: as §1
# [13] = target: Gal(b1-4)GlcNAc(b1-2)[Gal(b1-4)GlcNAc(b1-4)]Man(a1-3)[Gal(b1-4)GlcNAc(b1-2)Man(a1-6)]Man(b1-4)GlcNAc(b1-4)GlcNAc
# Outline: as §1
# [14] = target: Gal(b1-4)GlcNAc(b1-2)[Gal(b1-4)GlcNAc(b1-4)]Man(a1-3)[Gal(b1-4)GlcNAc(b1-2)[Gal(b1-4)GlcNAc(b1-6)]Man(a1-6)]Man(b1-4)GlcNAc(b1-4)GlcNAc
# Outline: as §1
# [15] = target: Gal(b1-4)GlcNAc(b1-2)[Gal(b1-4)GlcNAc(b1-4)]Man(a1-3)[GlcNAc(b1-4)][Gal(b1-4)GlcNAc(b1-2)Man(a1-6)]Man(b1-4)GlcNAc(b1-4)GlcNAc
# Outline: as §1
# [16] = target: Gal(b1-4)GlcNAc(b1-2)[Gal(b1-4)GlcNAc(b1-4)]Man(a1-3)[GlcNAc(b1-4)][Gal(b1-4)GlcNAc(b1-2)[Gal(b1-4)GlcNAc(b1-6)]Man(a1-6)]Man(b1-4)GlcNAc(b1-4)GlcNAc
# Outline: as §1
# [17] = target: Gal(b1-4)GlcNAc(b1-2)[Gal(b1-4)GlcNAc(b1-6)]Man(a1-6)[Gal(b1-4)GlcNAc(b1-2)Man(a1-3)]Man(b1-4)GlcNAc(b1-4)GlcNAc
# Outline: as §1
# [18] = target: Gal(b1-4)GlcNAc(b1-2)[Gal(b1-4)GlcNAc(b1-6)]Man(a1-6)[Gal(b1-4)GlcNAc(b1-2)Man(a1-3)]Man(b1-4)GlcNAc(b1-4)[Fuc(a1-6)]GlcNAc
# Outline: as §1
# [19] = target: Gal(b1-4)GlcNAc(b1-2)[Gal(b1-4)GlcNAc(b1-6)]Man(a1-6)[GlcNAc(b1-4)][Gal(b1-4)GlcNAc(b1-2)Man(a1-3)]Man(b1-4)GlcNAc(b1-4)GlcNAc
# Outline: as §1
# [20] = target: Gal(b1-4)GlcNAc(b1-2)[Gal(b1-4)GlcNAc(b1-6)]Man(a1-6)[GlcNAc(b1-4)][Gal(b1-4)GlcNAc(b1-2)[Gal(b1-4)GlcNAc(b1-4)]Man(a1-3)]Man(b1-4)GlcNAc(b1-4)[Fuc(a1-6)]GlcNAc
# Outline: as §1
# [21] = target: Gal(b1-4)GlcNAc(b1-3)Gal(b1-3)GalNAc
# Outline: as §1
# [22] = target: Gal(b1-4)GlcNAc(b1-3)Gal(b1-3)GlcNAc
# Outline: as §1
# [23] = target: Gal(b1-4)GlcNAc(b1-3)Gal(b1-4)Glc
# Outline: as §1
# [24] = target: Gal(b1-4)GlcNAc(b1-3)Gal(b1-4)GlcNAc
# Outline: as §1
# [25] = target: Gal(b1-4)GlcNAc(b1-3)Gal(b1-4)GlcNAc(b1-2)Man(a1-3)[Gal(b1-4)GlcNAc(b1-3)Gal(b1-4)GlcNAc(b1-2)Man(a1-6)]Man(b1-4)GlcNAc(b1-4)GlcNAc
# Outline: as §1
# [26] = target: Gal(b1-4)GlcNAc(b1-3)Gal(b1-4)GlcNAc(b1-2)Man(a1-3)[Gal(b1-4)GlcNAc(b1-3)Gal(b1-4)GlcNAc(b1-2)Man(a1-6)]Man(b1-4)GlcNAc(b1-4)[Fuc(a1-6)]GlcNAc
# Outline: as §1
# [27] = target: Gal(b1-4)GlcNAc(b1-3)Gal(b1-4)GlcNAc(b1-2)[Gal(b1-4)GlcNAc(b1-3)Gal(b1-4)GlcNAc(b1-6)]Man(a1-6)[Gal(b1-4)GlcNAc(b1-3)Gal(b1-4)GlcNAc(b1-2)Man(a1-3)]Man(b1-4)GlcNAc(b1-4)GlcNAc
# Outline: as §1
# [28] = target: Gal(b1-4)GlcNAc(b1-3)Gal(b1-4)GlcNAc(b1-2)[Gal(b1-4)GlcNAc(b1-3)Gal(b1-4)GlcNAc(b1-6)]Man(a1-6)[Gal(b1-4)GlcNAc(b1-3)Gal(b1-4)GlcNAc(b1-2)Man(a1-3)]Man(b1-4)GlcNAc(b1-4)[Fuc(a1-6)]GlcNAc
# Outline: as §1
# [29] = target: Gal(b1-4)GlcNAc(b1-3)Gal(b1-4)GlcNAc(b1-3)Gal(b1-4)GlcNAc
# Outline: as §1
# [30] = target: Gal(b1-4)GlcNAc(b1-3)Gal(b1-4)GlcNAc(b1-3)Gal(b1-4)GlcNAc(b1-2)Man(a1-3)[Gal(b1-4)GlcNAc(b1-3)Gal(b1-4)GlcNAc(b1-3)Gal(b1-4)GlcNAc(b1-2)Man(a1-6)]Man(b1-4)GlcNAc(b1-4)GlcNAc
# Outline: as §1
# [31] = target: Gal(b1-4)GlcNAc(b1-3)Gal(b1-4)GlcNAc(b1-3)Gal(b1-4)GlcNAc(b1-2)Man(a1-3)[Gal(b1-4)GlcNAc(b1-3)Gal(b1-4)GlcNAc(b1-3)Gal(b1-4)GlcNAc(b1-2)Man(a1-6)]Man(b1-4)GlcNAc(b1-4)[Fuc(a1-6)]GlcNAc
# Outline: as §1
# [32] = target: Gal(b1-4)GlcNAc(b1-3)Gal(b1-4)GlcNAc(b1-3)Gal(b1-4)GlcNAc(b1-2)[Gal(b1-4)GlcNAc(b1-3)Gal(b1-4)GlcNAc(b1-3)Gal(b1-4)GlcNAc(b1-6)]Man(a1-6)[Gal(b1-4)GlcNAc(b1-3)Gal(b1-4)GlcNAc(b1-3)Gal(b1-4)GlcNAc(b1-2)Man(a1-3)]Man(b1-4)GlcNAc(b1-4)[Fuc(a1-6)]GlcNAc
# Outline: as §1
# [33] = target: Gal(b1-4)GlcNAc(b1-3)Gal(b1-4)GlcNAc(b1-3)Gal(b1-4)GlcNAc(b1-3)Gal(b1-4)GlcNAc(b1-2)Man(a1-3)[Gal(b1-4)GlcNAc(b1-3)Gal(b1-4)GlcNAc(b1-3)Gal(b1-4)GlcNAc(b1-3)Gal(b1-4)GlcNAc(b1-2)Man(a1-6)]Man(b1-4)GlcNAc(b1-4)GlcNAc
# Outline: as §1
# [34] = target: Gal(b1-4)GlcNAc(b1-3)Gal(b1-4)GlcNAc(b1-3)Gal(b1-4)GlcNAc(b1-3)Gal(b1-4)GlcNAc(b1-2)Man(a1-3)[Gal(b1-4)GlcNAc(b1-3)Gal(b1-4)GlcNAc(b1-3)Gal(b1-4)GlcNAc(b1-3)Gal(b1-4)GlcNAc(b1-2)Man(a1-6)]Man(b1-4)GlcNAc(b1-4)[Fuc(a1-6)]GlcNAc
# Outline: as §1
binder,measurement,setting,value
B1,glycan array binding signal (z-score),Gal(b1-4)Glc6S,0.019
same,glycan array binding signal (z-score),Gal(b1-4)GlcNAc,0.033
same,glycan array binding signal (z-score),[1],-0.547
same,glycan array binding signal (z-score),Gal(b1-4)GlcNAc(b1-2)Man,-0.238
same,glycan array binding signal (z-score),[2],-0.195
same,glycan array binding signal (z-score),[3],-0.54
same,glycan array binding signal (z-score),[4],1.94
same,glycan array binding signal (z-score),[5],0.493
same,glycan array binding signal (z-score),[6],-0.574
same,glycan array binding signal (z-score),[7],0.357
same,glycan array binding signal (z-score),[8],0.182
same,glycan array binding signal (z-score),[9],-0.459
same,glycan array binding signal (z-score),[10],-0.527
same,glycan array binding signal (z-score),[11],0.149
same,glycan array binding signal (z-score),[12],-0.055
same,glycan array binding signal (z-score),[13],-0.177
same,glycan array binding signal (z-score),[14],0.072
same,glycan array binding signal (z-score),[15],-0.47
same,glycan array binding signal (z-score),[16],-0.86
same,glycan array binding signal (z-score),[17],-0.321
same,glycan array binding signal (z-score),[18],-0.639
same,glycan array binding signal (z-score),[19],-0.633
same,glycan array binding signal (z-score),[20],-0.189
same,glycan array binding signal (z-score),[21],-0.664
same,glycan array binding signal (z-score),[22],-0.525
same,glycan array binding signal (z-score),[23],-0.719
same,glycan array binding signal (z-score),[24],-0.5
same,glycan array binding signal (z-score),[25],2.91
same,glycan array binding signal (z-score),[26],1.72
same,glycan array binding signal (z-score),[27],0.813
same,glycan array binding signal (z-score),[28],0.495
same,glycan array binding signal (z-score),[29],-0.34
same,glycan array binding signal (z-score),[30],2.41
same,glycan array binding signal (z-score),[31],0.691
same,glycan array binding signal (z-score),[32],0.991
same,glycan array binding signal (z-score),[33],0.501
same,glycan array binding signal (z-score),[34],-0.553
